Results as given in patent US20210353652A1, “TUMOR MICROENVIRONMENT-ACTIVATED DRUG-BINDER CONJUGATES, AND USES RELATED THERETO” (Trustees of Tufts College, priority 2018, published 2021).

Tests used:
[1] = tested on: A375 tumors expressing human PD-L1; assay: Biodistribution by fluorescence imaging in A375 mouse xenograft model; type: in vivo
human PD-L1 Fc = target: T1, human PD-L1 Fc (Homo sapiens, UniProt Q9NZQ7); assay: PD-L1 binding ELISA; conditions: IRDye 800CW conjugate compared with parental molecule
T1 construct: purchased R&D Systems
T1 sequence (Q9NZQ7 with tags, fused parts or gaps limits assumed): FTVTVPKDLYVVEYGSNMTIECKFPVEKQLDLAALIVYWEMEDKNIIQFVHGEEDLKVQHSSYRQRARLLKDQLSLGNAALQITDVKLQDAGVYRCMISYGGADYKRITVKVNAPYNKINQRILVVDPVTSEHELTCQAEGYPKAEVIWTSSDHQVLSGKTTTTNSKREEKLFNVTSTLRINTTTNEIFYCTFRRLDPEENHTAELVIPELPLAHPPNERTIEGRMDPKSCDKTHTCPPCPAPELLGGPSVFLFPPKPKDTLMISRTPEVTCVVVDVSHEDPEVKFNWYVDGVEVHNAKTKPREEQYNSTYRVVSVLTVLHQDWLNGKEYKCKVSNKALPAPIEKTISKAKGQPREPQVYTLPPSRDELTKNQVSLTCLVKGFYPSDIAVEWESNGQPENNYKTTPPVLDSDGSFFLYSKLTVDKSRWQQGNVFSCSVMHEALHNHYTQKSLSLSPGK

[2] = target: T2, human PD-L1 Fc (R&D Systems) chimeric protein (human, UniProt Q9NZQ7 fragment); assay: binding ELISA on plate-coated human PD-L1 Fc (as in Example 10)
T2 construct: Bought reagent; also called human PD-L1 Fe; not shown: Fc part of the bought R&D Systems chimera

[3] = tested on: T cell response (BMDC co-cultured with allogenic CD4+ T cells); assay: Mouse mixed lymphocyte reaction (MLR) assay; type: cell-based; conditions: ELISA of supernatant after 3 days of culture, in comparison to isotype control or SQTGly Fc
MB49 cells = assay: MB49 syngeneic murine bladder cancer model; type: in vivo, mouse; conditions: C57BL/6 mice, 21 days after initiation of treatment; Dunnett's test
J774A.1 cells = assay: Pyroptosis (LDH release) in J774 mouse macrophage cell line; type: cell-based; conditions: 1 μM, 24 hours
[4] = tested on: humanized PD-L1 MC38 tumour cell line; assay: Humanised PD-L1 MC38 syngeneic model of colorectal cancer; type: in vivo, mouse; conditions: C57BL/6 mice, 10 mg/kg IP twice a week for 3 weeks; control SQTgly Fc
PD-1/PD-L1 interaction = target: T3, PD-1/PD-L1 interaction (Homo sapiens, UniProt Q9NZQ7); assay: PD-1/PD-L1 cell-based blockade assay (Promega, NFAT reporter); conditions: Jurkat PD-1 NFAT-luciferase cells co-cultured with PD-L1 aAPC/CHO-K1 cells
T3 construct: host or cells: PD-L1 aAPC/CHO-K1 cells and Jurkat T cells (NFAT-RE luciferase)
T3 sequence (Q9NZQ7 19-290): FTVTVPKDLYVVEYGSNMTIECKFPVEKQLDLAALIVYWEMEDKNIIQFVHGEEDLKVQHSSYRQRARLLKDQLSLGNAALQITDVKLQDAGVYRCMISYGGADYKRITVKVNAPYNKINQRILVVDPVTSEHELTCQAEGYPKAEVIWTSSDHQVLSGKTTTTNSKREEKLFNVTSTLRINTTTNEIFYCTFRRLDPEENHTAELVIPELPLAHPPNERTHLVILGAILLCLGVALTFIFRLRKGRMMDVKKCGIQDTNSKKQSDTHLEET

B1: AVA04-251 Fc-800 (Fc fusion)
chain: IPRGLSEAKPATPEIQEIVDKVKPQLEEKTGETYGKLEAVQYKTQVLAREGRQDWVLSTNYYIKVRAGDNKYMHLKVFNGPWVPFPHQQLADRVLTGYQVDKNKDDELTGFAAAGGGGSGGGGSGGGGSGGGGS[sequence of human IgG1 Fc omitted]
modifications: IRDye800CW conjugated with NHS chemistry to accessible amino groups (4:1 dye:protein in the reaction)
notes: also called dye-conjugated Affimer
Tumor penetration ([1]; 0.1 nmoles iv, tumour dissected 26 hours post-dose): Tumor penetration of the dye-conjugated Affimer was demonstrated
Biodistribution (tumor targeting) ([1]; 0.5 nmoles iv, 26-hour timepoint): targeting of the anti-PD-L1 Affimer to the tumor
EC50 of binding to human PD-L1, conjugated versus unconjugated Affimer (human PD-L1 Fc): comparable EC50 values
EC50 [2]: 0.02 nM

B2: AVA04-182 Fc (Fc fusion)
chain: IPRGLSEAKPATPEIQEIVDKVKPQLEEKTGETYGKLEAVQYKTQVLAFALPEFEYMSTNYYIKVRAGDNKYMHLKVFNGPPMIRRKNEVADRVLTGYQVDKNKDDELTGFLHAAAGGGGSGGGGSGGGGSGGGGS[sequence of human IgG1 Fc omitted]
notes: Produced in Expi293F cells; also called AVA04-182 Fc fusion protein
IFNγ secretion [3]: increase
IL-2 secretion ([3]; data not shown): increase
Tumor growth (MB49 cells): No significant difference
LDH release in the presence of rhFAPα (J774A.1 cells; 25 nM rhFAPα): did not produce LDH release
LDH release in the absence of rhFAPα (J774A.1 cells; no rhFAPα): did not produce LDH release

B3: AVA04-251 Fc: anti-PD-L1 Affimer Fc fusion protein (SEQ ID No. 117), binds human PD-L1 (protein)
chain: IPRGLSEAKPATPEIQEIVDKVKPQLEEKTGETYGKLEAVQYKTQVLAREGRQDWVLSTNYYIKVRAGDNKYMHLKVFNGPWVPFPHQQLADRVLTGYQVDKNKDDELTGFAAAGGGGSGGGGSGGGGSGGGGS[sequence of human IgG1 Fc omitted]
Tumour size compared to the control [4]: reduced tumour size
Blockade of PD-1/PD-L1 interaction (NFAT-RE-mediated luminescence) (PD-1/PD-L1 interaction): blocks the PD-1/PD-L1 interaction
